Data reported in the supplement of paper PMC9151546.
Most values come without repeats; read them as rough.

Assays:
[1] = test system: CHO-K1; test: relative survival (nuclei to bead ratio vs DMSO control) (% of vehicle control); higher = more surviving cells
[2] = test system: CHO-K1; test: micronucleus frequency (% of nucleated events); higher = more micronuclei (genotoxic)
[3] = test system: CHO-K1; test: hypodiploid nuclei frequency (% of nucleated events); higher = more hypodiploid events (aneugenic)
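Throughout, for hypodiploid nuclei frequency (% of nucleated events): hypodiploid nuclei gated on a flow cytometer with 488 nm excitation after SYTOX Green staining, cultures at 37 °C, positive controls vinblastine without S9 and cyclophosphamide with S9.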
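Throughout, for micronucleus frequency (% of nucleated events): cells lysed with nuclei stained by SYTOX Green, then micronucleus-gated events counted against nucleated events by flow cytometry with 488 nm excitation.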
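Throughout, for relative survival (nuclei to bead ratio vs DMSO control): Lysed-cell nuclei stained with SYTOX Green and counted against counting beads by flow cytometry at 488 nm excitation, with vinblastine (no S9) and cyclophosphamide (plus S9) as positive controls.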

O=C(OC[C@H]1O[C@@H](OC(=O)c2cc(O)c(O)c(OC(=O)c3cc(O)c(O)c(O)c3)c2)[C@H](OC(=O)c2cc(O)c(O)c(OC(=O)c3cc(O)c(O)c(O)c3)c2)[C@@H](OC(=O)c2cc(O)c(O)c(OC(=O)c3cc(O)c(O)c(O)c3)c2)[C@@H]1OC(=O)c1cc(O)c(O)c(OC(=O)c2cc(O)c(O)c(O)c2)c1)c1cc(O)c(O)c(OC(=O)c2cc(O)c(O)c(O)c2)c1 [Tannic acid]
Details | hypodiploid nuclei frequency, [3] [%] | micronucleus frequency, [2] [%] | relative survival, [1]
concentration: 0.137 (µM), S9 metabolic activation: with S9, exposure time: 3-4 hours | 0.22 | 1.58 | 85.1
concentration: 0.137 (µM), S9 metabolic activation: without S9, exposure time: 24 hours | 0.78 | 2.46 | 106
concentration: 0.172 (µM), S9 metabolic activation: with S9, exposure time: 3-4 hours | 0.24 | 1.62 | 80
concentration: 0.172 (µM), S9 metabolic activation: without S9, exposure time: 24 hours | 0.6 | 1.68 | 93
concentration: 0.215 (µM), S9 metabolic activation: with S9, exposure time: 3-4 hours | 0.22 | 1.68 | 72.9
concentration: 0.215 (µM), S9 metabolic activation: without S9, exposure time: 24 hours | 0.62 | 1.66 | 124
concentration: 0.268 (µM), S9 metabolic activation: with S9, exposure time: 3-4 hours | 0.12 | 1.76 | 82.3
concentration: 0.268 (µM), S9 metabolic activation: without S9, exposure time: 24 hours | 0.72 | 1.76 | 118
concentration: 0.335 (µM), S9 metabolic activation: with S9, exposure time: 3-4 hours | 0.22 | 1.48 | 79.8
concentration: 0.335 (µM), S9 metabolic activation: without S9, exposure time: 24 hours | 0.84 | 2 | 98.1
concentration: 0.419 (µM), S9 metabolic activation: with S9, exposure time: 3-4 hours | 0.42 | 1.86 | 103
concentration: 0.419 (µM), S9 metabolic activation: without S9, exposure time: 24 hours | 0.76 | 2.24 | 108
concentration: 0.524 (µM), S9 metabolic activation: with S9, exposure time: 3-4 hours | 0.12 | 1.36 | 77.6
concentration: 0.524 (µM), S9 metabolic activation: without S9, exposure time: 24 hours | 0.6 | 1.8 | 107
concentration: 0.655 (µM), S9 metabolic activation: with S9, exposure time: 3-4 hours | 0.24 | 1.48 | 76.2
concentration: 0.655 (µM), S9 metabolic activation: without S9, exposure time: 24 hours | 0.92 | 2.06 | 95.5
concentration: 0.819 (µM), S9 metabolic activation: with S9, exposure time: 3-4 hours | 0.2 | 0.96 | 96.7
concentration: 0.819 (µM), S9 metabolic activation: without S9, exposure time: 24 hours | 0.56 | 2.42 | 110
concentration: 1.02 (µM), S9 metabolic activation: with S9, exposure time: 3-4 hours | 0.22 | 1.8 | 83.2
concentration: 1.02 (µM), S9 metabolic activation: without S9, exposure time: 24 hours | 0.66 | 2.44 | 99.5
concentration: 1.28 (µM), S9 metabolic activation: with S9, exposure time: 3-4 hours | 0.38 | 2.46 | 87.7
concentration: 1.28 (µM), S9 metabolic activation: without S9, exposure time: 24 hours | 0.88 | 1.86 | 123
concentration: 1.6 (µM), S9 metabolic activation: with S9, exposure time: 3-4 hours | 0.48 | 5.38 | 76.6
concentration: 1.6 (µM), S9 metabolic activation: without S9, exposure time: 24 hours | 0.94 | 2.08 | 98.6
concentration: 2 (µM), S9 metabolic activation: with S9, exposure time: 3-4 hours | 0.54 | 7.01 | 51.9
concentration: 2 (µM), S9 metabolic activation: without S9, exposure time: 24 hours | 0.96 | 2.2 | 85
concentration: 2.5 (µM), S9 metabolic activation: with S9, exposure time: 3-4 hours | 0.9 | 5.27 | 51.2
concentration: 2.5 (µM), S9 metabolic activation: without S9, exposure time: 24 hours | 1.2 | 2.54 | 69.2
concentration: 3.12 (µM), S9 metabolic activation: with S9, exposure time: 3-4 hours | 0.93 | 4.31 | 47.5
concentration: 3.12 (µM), S9 metabolic activation: without S9, exposure time: 24 hours | 1.2 | 2.72 | 56.8
concentration: 3.9 (µM), S9 metabolic activation: with S9, exposure time: 3-4 hours | 0.78 | 4.73 | 47.5
concentration: 3.9 (µM), S9 metabolic activation: without S9, exposure time: 24 hours | 0.74 | 2.16 | 53.2
concentration: 4.88 (µM), S9 metabolic activation: with S9, exposure time: 3-4 hours | 0.83 | 4.84 | 47.6
concentration: 4.88 (µM), S9 metabolic activation: without S9, exposure time: 24 hours | 0.86 | 1.6 | 42.6
concentration: 6.1 (µM), S9 metabolic activation: with S9, exposure time: 3-4 hours | 0.87 | 3.89 | 52.6
concentration: 6.1 (µM), S9 metabolic activation: without S9, exposure time: 24 hours | – | – | 38.8
